Measurements taken from PubChem BioAssay AID488969 (Vanderbilt High Throughput Screening Facility, 2010).
Over roughly 110,000 compounds, “z-score” has its median near -0.1; the highest 2% begin near 2. This is one part of the list.

Target: Metabotropic glutamate receptor 8 (Rattus norvegicus) (UniProt P70579)
Assay: mGluR8 Gi/Go-coupled signaling modulation – cell-based, rat, thallium flux, HTS, primary screen (AID 488969)
Details: HEK293 rat mGluR8, GIRK (G protein-gated inwardly rectifying potassium channel) thallium flux, FluoZin2; at 10 µM; stronger effect = higher value; submaximal glutamate (EC20) added with thallium

Sequence of UniProt P70579 (P70579 whole entry, looked up): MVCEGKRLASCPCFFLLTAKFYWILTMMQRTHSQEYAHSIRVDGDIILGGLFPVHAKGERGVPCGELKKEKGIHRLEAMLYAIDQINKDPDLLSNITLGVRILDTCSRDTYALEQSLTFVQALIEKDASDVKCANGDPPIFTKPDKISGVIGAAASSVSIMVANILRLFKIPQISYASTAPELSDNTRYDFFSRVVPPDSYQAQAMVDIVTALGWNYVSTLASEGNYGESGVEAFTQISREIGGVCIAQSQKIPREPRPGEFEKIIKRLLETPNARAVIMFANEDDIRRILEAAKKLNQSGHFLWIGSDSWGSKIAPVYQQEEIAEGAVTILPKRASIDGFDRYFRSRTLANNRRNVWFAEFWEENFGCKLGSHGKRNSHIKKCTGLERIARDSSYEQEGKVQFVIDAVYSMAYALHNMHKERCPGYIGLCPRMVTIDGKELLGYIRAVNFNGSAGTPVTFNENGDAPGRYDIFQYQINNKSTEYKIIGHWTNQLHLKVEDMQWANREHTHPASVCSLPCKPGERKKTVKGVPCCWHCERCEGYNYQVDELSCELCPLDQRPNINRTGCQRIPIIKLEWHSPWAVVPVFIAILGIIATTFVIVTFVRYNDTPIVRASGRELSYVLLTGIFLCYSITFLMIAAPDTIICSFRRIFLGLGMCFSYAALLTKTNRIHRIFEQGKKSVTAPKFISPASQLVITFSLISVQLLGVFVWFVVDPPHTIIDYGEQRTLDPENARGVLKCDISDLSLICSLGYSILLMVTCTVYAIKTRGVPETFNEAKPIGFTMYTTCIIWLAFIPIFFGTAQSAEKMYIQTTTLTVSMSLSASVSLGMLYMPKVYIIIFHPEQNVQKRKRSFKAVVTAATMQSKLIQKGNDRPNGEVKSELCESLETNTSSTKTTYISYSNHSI

Compound | z-score
CCOC(=O)c1cnc(SC)nc1Nc1cccc(F)c1 | 0.141
CCc1ccc(-c2cn(-c3nc(C)cc(C)n3)c(=N)o2)cc1 | -0.136
CCOC(=O)N1CCN(Cc2nc(-c3ccc(OC)cc3)no2)CC1 | 0.0937
Cc1ccc2nc(C)c(C(=O)N/N=C/c3cccs3)cc2c1 | -0.15
Clc1ccc(CSc2nnc(-c3ccccn3)n2Cc2ccco2)c(Cl)c1 | 0.104
O=C(CSc1ccc(-c2cccs2)nn1)NCc1ccccc1Cl | 0.0392
O=C(Cn1cnc2c(cnn2-c2ccccc2)c1=O)NCCc1ccccc1 | -0.233
CC1(c2ccc(OC(F)F)cc2)NC(=O)N(CC(=O)Nc2ccc3c(c2)OCO3)C1=O (stereo not given) | -0.263
Cc1ccc(NC(=O)c2cc(S(=O)(=O)Nc3ccc(C)cc3)cs2)cc1 | -0.235
C=CCc1ccccc1OCC(O)CN1CCN(c2ccccc2F)CC1 (stereo not given) | 0.0351
Cc1cc(=O)[nH]c(-n2nc(C)c(Oc3ccccc3O)c2C)n1 | -0.0623
O=C(Nc1ccccc1)N(Cc1ccccc1)C1=NCCS1 | 0.0189
Cc1ccc(SCC(=O)NC(=O)NCc2ccco2)cc1C | -0.239
Clc1cc(Br)ccc1OCCn1ccnc1 | 0.187
O=c1[nH]c2ccc(Cl)cc2c(O)c1-c1ccccc1 | -0.00451
Cc1ccc(S(=O)(=O)Nc2cccc(NC(=O)CN3CCCCC3)c2)cc1 | -0.385
COc1ccccc1OC(C)C(=O)Nc1nc(-c2ccc(S(=O)(=O)N3CCOCC3)cc2)cs1 (stereo not given) | -0.0764
Cn1cccc1Cc1nnc(SCC(=O)Nc2ccccc2F)n1-c1ccc(F)cc1 | -0.0639
O=C(CNC(=O)c1cccs1)NC1=NCCS1 | 0.647
O=C1N(CCCCN2C(=O)C3(OCCO3)c3ccccc32)c2ccccc2C12OCCO2 | -0.00606
COc1ccc(OCCCON2C(=O)c3ccccc3C2=O)cc1 | -0.357
CCc1ccc2nc(N3C(=O)C(O)=C(C(=O)c4ccco4)C3c3cccs3)sc2c1 (stereo not given) | -1.1
COc1ccc(/C=N\NC(=O)CCN2CCN(c3ccccc3)CC2)cc1OC | -0.199
O=c1[nH][nH]c(-c2ccccc2O)c1C(C[N+](=O)[O-])c1ccccc1 (stereo not given) | -0.052
O=C(O)C1C(c2ccccc2)C(C(=O)Oc2ccccc2)C1c1ccccc1 (stereo not given) | -0.122
COc1ccccc1OCCn1cc(C#N)c2ccccc21 | -0.18
Cc1nc2cc(-c3cccc(F)c3)nn2c(C)c1CCC(=O)NC(C)CCc1ccco1 (stereo not given) | -0.697
CC(=O)c1cc(-c2ccccc2)[nH]c1N1CCCC1 | -0.0239

Compound | z-score
COC(=O)COc1ccc(/C=N/NC(=O)c2ccc(N(Cc3ccccc3)S(C)(=O)=O)cc2)cc1 | -1.39
O=C(NC1CCN(Cc2ccccc2)CC1)C12CC3CC(CC(C3)C1)C2 | 1.2
O=C(/C=C/c1cc([N+](=O)[O-])ccc1OC(F)F)NCc1ccc(F)cc1 | -0.205
O=C(c1ccc(Br)cc1)N1CCN(S(=O)(=O)c2ccccc2)CC1 | -0.654
CCOC(=O)c1cc(C)sc1/N=C/C1C(=O)CCCC1=O | -0.435
O=C(NCC(=O)N(CCc1ccccc1)C(C(=O)NC1CCCC1)c1cccnc1)c1ccco1 (stereo not given) | 0.363
CC(=O)Nc1ccc(/C=N/NC(=O)c2cc3cc(C)ccc3nc2C)cc1 | -0.796
COc1ccc(/C=C/C(=O)Nc2nonc2NC(C)=O)cc1 | 0.105
COC(=O)c1ccccc1S(=O)(=O)N1Cc2cc([N+](=O)[O-])ccc2Oc2ccccc21 | -0.935
O=C(COc1ccc(C(=S)N2CCOCC2)cc1)N1CCCC1 | -0.301
COc1ccc(-c2cc(C(F)(F)F)nc(SCCC(=O)NCc3ccco3)n2)cc1 | -0.0113
COc1ccc(/C=C2\CCCC3C2=NN(C(=O)COC(=O)CNC(=O)c2ccccc2)C3c2ccc(OC)cc2)cc1 (stereo not given) | 0.0844
S=C(Nc1ccccc1)N1N=CCC1c1ccccc1 (stereo not given) | -0.0985
Nc1ccc(C(=O)OCC(=O)N2CCOCC2)cc1[N+](=O)[O-] | -0.0687
CCN(CC)CCOc1ccc2nc(N(C)C)sc2c1 | -0.36
O=C(NCc1ccc(N2CCCC2=O)cc1)NC1CCCCC1 | 1.5
COc1ccc(OC)c(C2C(C#N)=C(N)Oc3c2c(C)nn3-c2ccc(C)cc2)c1 (stereo not given) | -1
CSCC[C@H](NC(=O)OCc1ccccc1)C(=O)O | 0.0269
Cc1ccc(SCc2[nH]nc3c2C2(C(=O)N(C)c4ccccc42)C(C#N)=C(N)O3)cc1 (stereo not given) | 0.00725
S=C(Nc1ccccc1Cl)N(CCCN1CCOCC1)Cc1ccco1 | -0.532
Nc1c(C(=O)c2ccccc2)sc2snc(SCC(=O)c3ccccc3)c12 | -0.438
COCCN1Cc2cccc(C(=O)NC(C)c3cccs3)c2C1=O (stereo not given) | -1.13
O=C(Nc1ccc(Br)cc1)c1ccco1 | 0.0377
Cc1cc(C)nc(NC(=O)c2ccc(Cl)cc2[N+](=O)[O-])c1 | -0.377
OCCCc1nc2n(n1)C(c1ccccc1)C=C(c1ccccc1)N2 (stereo not given) | -0.449
COC(=O)C(O)(CC(=O)Nc1ccccc1OC)C(F)(F)F (stereo not given) | 0.901
Cc1cccc(NC(=S)NC(=O)CCc2ccccc2)c1 | 2.74
